Experimental data taken from article PMC12524662.
These are yes or no findings as the source states them, for the method shown. In cells and extracts the contact can be indirect. Some binding calls cover weakened binding; strength is not graded here. Sequences can lack the tags named with a protein.

Amino acid sequences for entries named in this document (tags omitted).
UniProt Q9NVM9: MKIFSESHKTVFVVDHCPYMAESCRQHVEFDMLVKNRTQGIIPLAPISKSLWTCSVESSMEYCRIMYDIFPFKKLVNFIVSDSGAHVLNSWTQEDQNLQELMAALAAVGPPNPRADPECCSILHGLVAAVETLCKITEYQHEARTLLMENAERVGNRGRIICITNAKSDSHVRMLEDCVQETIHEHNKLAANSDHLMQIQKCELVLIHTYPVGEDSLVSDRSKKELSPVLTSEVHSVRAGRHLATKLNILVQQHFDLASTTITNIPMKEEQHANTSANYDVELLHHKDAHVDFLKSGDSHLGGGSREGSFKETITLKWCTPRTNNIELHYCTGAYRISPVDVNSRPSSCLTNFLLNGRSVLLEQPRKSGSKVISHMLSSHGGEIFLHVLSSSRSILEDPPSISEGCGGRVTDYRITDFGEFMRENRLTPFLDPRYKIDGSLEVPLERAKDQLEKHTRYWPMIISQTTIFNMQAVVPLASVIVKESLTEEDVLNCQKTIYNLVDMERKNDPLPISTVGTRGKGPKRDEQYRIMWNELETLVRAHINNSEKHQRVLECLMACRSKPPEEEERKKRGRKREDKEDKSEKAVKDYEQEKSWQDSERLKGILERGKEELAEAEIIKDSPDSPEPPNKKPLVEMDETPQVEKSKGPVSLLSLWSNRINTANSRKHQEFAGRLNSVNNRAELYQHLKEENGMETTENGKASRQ
UniProt O94992: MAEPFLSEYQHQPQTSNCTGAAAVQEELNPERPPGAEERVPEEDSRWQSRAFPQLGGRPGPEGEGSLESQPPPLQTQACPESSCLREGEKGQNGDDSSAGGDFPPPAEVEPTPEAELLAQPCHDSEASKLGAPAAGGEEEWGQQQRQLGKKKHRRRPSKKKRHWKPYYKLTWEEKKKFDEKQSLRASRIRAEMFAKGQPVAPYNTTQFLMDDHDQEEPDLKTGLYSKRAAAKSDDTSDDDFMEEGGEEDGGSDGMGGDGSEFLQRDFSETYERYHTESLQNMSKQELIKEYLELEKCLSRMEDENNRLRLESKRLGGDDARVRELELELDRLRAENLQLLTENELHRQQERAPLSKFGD
UniProt P11387: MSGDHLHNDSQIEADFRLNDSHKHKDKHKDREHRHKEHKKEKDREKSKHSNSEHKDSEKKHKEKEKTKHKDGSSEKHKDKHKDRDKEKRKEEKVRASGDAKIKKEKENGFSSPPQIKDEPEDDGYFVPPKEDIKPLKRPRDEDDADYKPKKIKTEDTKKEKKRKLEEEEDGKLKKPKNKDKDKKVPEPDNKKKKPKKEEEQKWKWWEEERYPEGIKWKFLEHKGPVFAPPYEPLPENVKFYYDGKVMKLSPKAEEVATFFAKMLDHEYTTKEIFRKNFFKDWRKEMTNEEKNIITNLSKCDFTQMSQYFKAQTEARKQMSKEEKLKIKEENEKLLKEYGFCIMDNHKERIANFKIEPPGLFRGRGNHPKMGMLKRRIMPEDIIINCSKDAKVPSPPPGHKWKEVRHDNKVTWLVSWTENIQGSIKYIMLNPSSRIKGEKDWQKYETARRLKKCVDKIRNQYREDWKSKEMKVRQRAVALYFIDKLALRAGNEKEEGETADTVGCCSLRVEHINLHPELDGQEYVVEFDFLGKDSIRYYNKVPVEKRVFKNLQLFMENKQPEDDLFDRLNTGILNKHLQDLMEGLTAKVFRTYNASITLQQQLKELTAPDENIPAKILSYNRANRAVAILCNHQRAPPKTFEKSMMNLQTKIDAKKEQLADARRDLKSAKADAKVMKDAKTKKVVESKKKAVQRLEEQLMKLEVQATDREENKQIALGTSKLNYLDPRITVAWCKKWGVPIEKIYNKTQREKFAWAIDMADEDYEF
UniProt Q12905: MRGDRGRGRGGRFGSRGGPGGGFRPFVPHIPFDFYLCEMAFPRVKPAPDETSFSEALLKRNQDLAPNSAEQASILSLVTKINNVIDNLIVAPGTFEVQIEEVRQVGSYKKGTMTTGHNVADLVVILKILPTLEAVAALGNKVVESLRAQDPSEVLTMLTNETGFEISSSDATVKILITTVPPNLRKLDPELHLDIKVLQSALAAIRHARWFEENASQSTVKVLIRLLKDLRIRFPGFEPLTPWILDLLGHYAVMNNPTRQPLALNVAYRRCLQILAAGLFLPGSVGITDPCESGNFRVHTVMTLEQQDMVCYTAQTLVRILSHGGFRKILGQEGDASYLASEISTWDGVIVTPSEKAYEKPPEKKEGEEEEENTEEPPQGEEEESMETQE
UniProt P50750: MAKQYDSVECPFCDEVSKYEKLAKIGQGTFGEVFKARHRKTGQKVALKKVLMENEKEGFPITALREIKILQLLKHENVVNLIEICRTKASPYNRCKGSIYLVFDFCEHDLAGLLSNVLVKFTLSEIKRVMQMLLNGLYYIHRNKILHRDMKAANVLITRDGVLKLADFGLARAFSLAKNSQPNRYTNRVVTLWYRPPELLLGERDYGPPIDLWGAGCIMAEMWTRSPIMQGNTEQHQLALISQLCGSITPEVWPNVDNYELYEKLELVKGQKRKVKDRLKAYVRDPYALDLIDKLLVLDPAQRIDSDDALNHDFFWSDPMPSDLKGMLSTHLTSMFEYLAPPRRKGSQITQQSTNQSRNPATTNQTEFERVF
UniProt O75643: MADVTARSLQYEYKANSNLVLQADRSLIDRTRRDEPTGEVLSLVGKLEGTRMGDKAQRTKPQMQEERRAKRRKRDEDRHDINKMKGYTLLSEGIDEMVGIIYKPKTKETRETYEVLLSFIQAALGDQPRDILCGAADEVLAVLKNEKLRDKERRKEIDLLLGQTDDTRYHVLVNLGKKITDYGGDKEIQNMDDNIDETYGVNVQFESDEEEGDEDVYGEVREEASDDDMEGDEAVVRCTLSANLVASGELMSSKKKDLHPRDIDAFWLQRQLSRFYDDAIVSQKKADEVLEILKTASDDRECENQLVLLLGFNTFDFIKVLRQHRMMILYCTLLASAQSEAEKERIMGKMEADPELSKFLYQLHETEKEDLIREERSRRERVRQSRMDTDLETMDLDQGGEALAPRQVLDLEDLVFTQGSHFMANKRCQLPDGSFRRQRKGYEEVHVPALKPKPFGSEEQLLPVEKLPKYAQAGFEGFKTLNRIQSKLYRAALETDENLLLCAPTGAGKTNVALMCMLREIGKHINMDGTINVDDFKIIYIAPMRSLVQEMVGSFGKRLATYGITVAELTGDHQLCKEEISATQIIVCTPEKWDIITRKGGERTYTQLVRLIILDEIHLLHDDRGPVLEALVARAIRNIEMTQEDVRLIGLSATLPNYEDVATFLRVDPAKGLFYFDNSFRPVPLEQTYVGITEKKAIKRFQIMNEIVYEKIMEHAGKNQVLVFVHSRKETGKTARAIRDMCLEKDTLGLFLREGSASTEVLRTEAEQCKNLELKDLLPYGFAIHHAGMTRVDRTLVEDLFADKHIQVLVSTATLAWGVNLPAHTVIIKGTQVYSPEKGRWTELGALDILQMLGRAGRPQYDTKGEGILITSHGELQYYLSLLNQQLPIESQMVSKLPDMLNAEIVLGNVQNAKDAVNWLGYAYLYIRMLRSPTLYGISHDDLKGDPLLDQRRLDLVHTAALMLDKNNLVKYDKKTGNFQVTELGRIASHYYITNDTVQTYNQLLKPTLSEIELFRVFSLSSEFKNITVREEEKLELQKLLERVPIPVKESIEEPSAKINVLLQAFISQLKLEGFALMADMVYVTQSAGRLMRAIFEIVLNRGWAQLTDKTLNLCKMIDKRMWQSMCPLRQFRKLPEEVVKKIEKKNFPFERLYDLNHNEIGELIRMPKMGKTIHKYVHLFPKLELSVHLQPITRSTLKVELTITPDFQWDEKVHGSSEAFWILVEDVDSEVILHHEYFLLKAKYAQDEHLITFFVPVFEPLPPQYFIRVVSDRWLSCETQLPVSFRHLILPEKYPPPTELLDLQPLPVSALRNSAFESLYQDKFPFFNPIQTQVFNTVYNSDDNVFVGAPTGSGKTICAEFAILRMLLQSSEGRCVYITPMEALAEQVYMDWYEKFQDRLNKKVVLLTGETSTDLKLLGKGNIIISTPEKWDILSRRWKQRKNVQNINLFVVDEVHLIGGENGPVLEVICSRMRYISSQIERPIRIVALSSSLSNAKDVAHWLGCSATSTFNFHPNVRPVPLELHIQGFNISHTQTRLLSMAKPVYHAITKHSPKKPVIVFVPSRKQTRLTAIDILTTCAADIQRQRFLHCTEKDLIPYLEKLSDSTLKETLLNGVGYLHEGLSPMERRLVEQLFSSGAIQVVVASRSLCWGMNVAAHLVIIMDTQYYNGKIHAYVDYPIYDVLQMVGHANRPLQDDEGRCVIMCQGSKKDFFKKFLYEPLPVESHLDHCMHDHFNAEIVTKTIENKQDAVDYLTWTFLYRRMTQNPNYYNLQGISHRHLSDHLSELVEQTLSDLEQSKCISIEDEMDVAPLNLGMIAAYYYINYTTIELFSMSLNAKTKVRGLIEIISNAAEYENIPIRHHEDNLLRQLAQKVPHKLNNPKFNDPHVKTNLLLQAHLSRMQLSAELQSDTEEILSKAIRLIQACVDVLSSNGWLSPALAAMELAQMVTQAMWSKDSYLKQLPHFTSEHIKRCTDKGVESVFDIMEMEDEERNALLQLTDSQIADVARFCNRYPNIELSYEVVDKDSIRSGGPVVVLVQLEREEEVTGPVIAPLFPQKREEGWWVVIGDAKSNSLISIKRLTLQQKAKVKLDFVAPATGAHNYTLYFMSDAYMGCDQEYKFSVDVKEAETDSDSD
UniProt O43143: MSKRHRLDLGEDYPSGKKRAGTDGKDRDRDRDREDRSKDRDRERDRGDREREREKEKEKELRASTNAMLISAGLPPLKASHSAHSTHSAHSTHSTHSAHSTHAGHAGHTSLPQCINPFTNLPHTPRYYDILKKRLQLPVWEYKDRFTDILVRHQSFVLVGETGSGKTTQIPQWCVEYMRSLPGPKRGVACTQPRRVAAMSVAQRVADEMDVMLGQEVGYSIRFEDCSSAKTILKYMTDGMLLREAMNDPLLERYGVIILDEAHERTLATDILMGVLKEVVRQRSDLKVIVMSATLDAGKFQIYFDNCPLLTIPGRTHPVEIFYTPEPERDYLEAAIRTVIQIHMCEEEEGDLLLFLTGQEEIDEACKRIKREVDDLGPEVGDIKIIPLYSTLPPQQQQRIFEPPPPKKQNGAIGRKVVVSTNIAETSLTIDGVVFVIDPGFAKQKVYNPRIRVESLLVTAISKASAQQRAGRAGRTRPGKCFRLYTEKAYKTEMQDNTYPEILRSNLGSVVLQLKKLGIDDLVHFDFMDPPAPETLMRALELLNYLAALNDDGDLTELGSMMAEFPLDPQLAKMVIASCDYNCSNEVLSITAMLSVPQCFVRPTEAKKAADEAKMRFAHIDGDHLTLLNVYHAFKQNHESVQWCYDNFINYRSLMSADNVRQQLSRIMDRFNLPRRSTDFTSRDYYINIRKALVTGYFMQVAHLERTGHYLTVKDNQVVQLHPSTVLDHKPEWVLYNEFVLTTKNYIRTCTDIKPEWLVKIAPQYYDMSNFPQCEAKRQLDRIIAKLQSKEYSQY
UniProt Q92841: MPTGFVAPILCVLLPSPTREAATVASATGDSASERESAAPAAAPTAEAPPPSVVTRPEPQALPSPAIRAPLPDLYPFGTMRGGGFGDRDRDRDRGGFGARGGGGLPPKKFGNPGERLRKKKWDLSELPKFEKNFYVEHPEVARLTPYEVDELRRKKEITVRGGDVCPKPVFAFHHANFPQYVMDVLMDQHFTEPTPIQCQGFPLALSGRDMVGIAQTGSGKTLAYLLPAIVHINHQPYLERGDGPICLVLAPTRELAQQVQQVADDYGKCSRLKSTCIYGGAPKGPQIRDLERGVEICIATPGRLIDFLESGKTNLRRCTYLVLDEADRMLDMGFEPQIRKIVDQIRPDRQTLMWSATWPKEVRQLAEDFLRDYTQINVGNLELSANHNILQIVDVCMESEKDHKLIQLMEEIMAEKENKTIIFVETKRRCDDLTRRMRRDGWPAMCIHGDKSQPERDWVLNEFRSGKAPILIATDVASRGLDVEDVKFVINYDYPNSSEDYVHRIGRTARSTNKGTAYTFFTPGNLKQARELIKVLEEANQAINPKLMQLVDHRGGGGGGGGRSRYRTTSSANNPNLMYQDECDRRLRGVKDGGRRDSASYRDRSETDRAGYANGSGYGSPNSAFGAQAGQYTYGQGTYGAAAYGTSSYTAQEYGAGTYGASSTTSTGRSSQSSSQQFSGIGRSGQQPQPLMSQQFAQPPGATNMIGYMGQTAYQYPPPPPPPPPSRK

T1: NRDE2 (nuclear RNAi-defective 2), endogenous, untagged (human (endogenous in HEK293T)) (UniProt Q9H7Z3)
T1 sequence: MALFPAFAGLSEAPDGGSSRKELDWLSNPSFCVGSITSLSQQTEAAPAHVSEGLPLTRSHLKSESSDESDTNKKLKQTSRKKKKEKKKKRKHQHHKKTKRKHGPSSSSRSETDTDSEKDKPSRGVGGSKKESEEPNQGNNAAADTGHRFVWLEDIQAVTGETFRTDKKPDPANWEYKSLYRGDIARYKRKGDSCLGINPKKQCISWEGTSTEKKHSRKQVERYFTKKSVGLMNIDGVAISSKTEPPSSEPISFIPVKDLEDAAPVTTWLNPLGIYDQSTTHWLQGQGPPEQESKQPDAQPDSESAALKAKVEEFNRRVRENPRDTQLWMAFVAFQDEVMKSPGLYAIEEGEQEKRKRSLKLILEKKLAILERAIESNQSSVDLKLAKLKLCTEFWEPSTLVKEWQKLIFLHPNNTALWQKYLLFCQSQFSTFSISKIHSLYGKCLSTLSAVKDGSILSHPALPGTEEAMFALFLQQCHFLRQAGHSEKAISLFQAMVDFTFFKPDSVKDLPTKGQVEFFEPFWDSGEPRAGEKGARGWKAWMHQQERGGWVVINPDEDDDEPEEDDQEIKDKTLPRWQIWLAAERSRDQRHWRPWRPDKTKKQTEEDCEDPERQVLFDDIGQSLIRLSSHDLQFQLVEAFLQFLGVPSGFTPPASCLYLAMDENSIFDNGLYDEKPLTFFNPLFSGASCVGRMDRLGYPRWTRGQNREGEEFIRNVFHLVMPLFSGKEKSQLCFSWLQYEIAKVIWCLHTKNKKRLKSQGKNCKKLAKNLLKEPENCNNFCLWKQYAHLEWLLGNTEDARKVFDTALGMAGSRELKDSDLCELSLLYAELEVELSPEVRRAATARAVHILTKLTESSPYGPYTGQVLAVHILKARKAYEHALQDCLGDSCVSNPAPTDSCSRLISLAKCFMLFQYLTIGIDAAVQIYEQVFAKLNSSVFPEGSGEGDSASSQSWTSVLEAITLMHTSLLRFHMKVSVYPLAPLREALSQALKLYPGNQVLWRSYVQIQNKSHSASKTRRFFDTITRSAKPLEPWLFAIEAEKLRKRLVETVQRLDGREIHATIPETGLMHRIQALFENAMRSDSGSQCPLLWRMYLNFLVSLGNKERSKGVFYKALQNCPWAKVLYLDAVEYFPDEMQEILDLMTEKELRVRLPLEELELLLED


molecular target: T1, NRDE2 (nuclear RNAi-defective 2), endogenous, untagged (human (endogenous in HEK293T)); experiment: co-IP; nuclear extracts (250 ug) of parental HEK293T immunoprecipitated with NRDE2 antibody or IgG control (2 ug) overnight at 4 °C; 3 washes with 20 mM Tris pH 8, 3 mM KCl, 150 mM NaCl, 1 mM MgCl2, 0.2% Triton X-100; immunoblot

| Molecule | binding |
| --- | --- |
| INTS13, subunit of the Integrator complex (from UniProt Q9NVM9 1-706) | binds |
| ZFC3H1 (PAXT) (from UniProt O60293 1-1989) | no binding |
| HEXIM1 (from UniProt O94992 1-359) | no binding |
| Topoisomerase I (TOP1) (from UniProt P11387 1-765) (enzyme) | binds |
| ILF2 (from UniProt Q12905 1-390) | binds |
| INTS3, subunit of the Integrator complex (from UniProt Q68E01 1-1043) | binds |
| CDK9, subunit of the positive transcription elongation factor b (P-TEFb) (from UniProt P50750 1-372) (enzyme) | binds |
| ZCCHC8 (NEXT) (protein, UniProt Q6NZY4 1-707) MAAEVYFGDLELFEPFDHPEESIPKPVHTRFKDDDGDEEDENGVGDAELRERLRQCEETIEQLRAENQELKRKLNILTRPSGILVNDTKLDGPILQILFMNNAISKQYHQEIEEFVSNLVKRFEEQQKNDVEKTSFNLLPQPSSIVLEEDHKVEESCAIKNNKEAFSVVGSVLYFTNFCLDKLGQPLLNENPQLSEGWEIPKYHQVFSHIVSLEGQEIQVKAKRPKPHCFNCGSEEHQMKDCPMPRNAARISEKRKEYMDACGEANNQNFQQRYHAEEVEERFGRFKPGVISEELQDALGVTDKSLPPFIYRMRQLGYPPGWLKEAELENSGLALYDGKDGTDGETEVGEIQQNKSVTYDLSKLVNYPGFNISTPRGIPDEWRIFGSIPMQACQQKDVFANYLTSNFQAPGVKSGNKRSSSHSSPGSPKKQKNESNSAGSPADMELDSDMEVPHGSQSSESFQFQPPLPPDTPPLPRGTPPPVFTPPLPKGTPPLTPSDSPQTRTASGAVDEDALTLEELEEQQRRIWAALEQAESVNSDSDVPVDTPLTGNSVASSPCPNELDLPVPEGKTSEKQTLDEPEVPEIFTKKSEAGHASSPDSEVTSLCQKEKAELAPVNTEGALLDNGSVVPNCDISNGGSQKLFPADTSPSTATKIHSPIPDMSKFATGITPFEFENMAESTGMYLRIRSLLKNSPRNQQKNKKASE | no binding |

Further lines, results first:

| binding | Molecule |
| --- | --- |
| binds | SNRNP200 (from UniProt O75643 1-2136) |
| binds | DDX15 (from UniProt O43143 1-795) |
| binds | DDX17 (from UniProt Q92841 1-729) |
| binds | ILF3 (protein, UniProt Q12906 1-894) MRPMRIFVNDDRHVMAKHSSVYPTQEELEAVQNMVSHTERALKAVSDWIDEQEKGSSEQAESDNMDVPPEDDSKEGAGEQKTEHMTRTLRGVMRVGLVAKGLLLKGDLDLELVLLCKEKPTTALLDKVADNLAIQLAAVTEDKYEILQSVDDAAIVIKNTKEPPLSLTIHLTSPVVREEMEKVLAGETLSVNDPPDVLDRQKCLAALASLRHAKWFQARANGLKSCVIVIRVLRDLCTRVPTWGPLRGWPLELLCEKSIGTANRPMGAGEALRRVLECLASGIVMPDGSGIYDPCEKEATDAIGHLDRQQREDITQSAQHALRLAAFGQLHKVLGMDPLPSKMPKKPKNENPVDYTVQIPPSTTYAITPMKRPMEEDGEEKSPSKKKKKIQKKEEKAEPPQAMNALMRLNQLKPGLQYKLVSQTGPVHAPIFTMSVEVDGNSFEASGPSKKTAKLHVAVKVLQDMGLPTGAEGRDSSKGEDSAEETEAKPAVVAPAPVVEAVSTPSAAFPSDATAEQGPILTKHGKNPVMELNEKRRGLKYELISETGGSHDKRFVMEVEVDGQKFQGAGSNKKVAKAYAALAALEKLFPDTPLALDANKKKRAPVPVRGGPKFAAKPHNPGFGMGGPMHNEVPPPPNLRGRGRGGSIRGRGRGRGFGGANHGGYMNAGAGYGSYGYGGNSATAGYSQFYSNGGHSGNASGGGGGGGGGSSGYGSYYQGDNYNSPVPPKHAGKKQPHGGQQKPSYGSGYQSHQGQQQSYNQSPYSNYGPPQGKQKGYNHGQGSYSYSNSYNSPGGGGGSDYNYESKFNYSGSGGRSGGNSYGSGGASYNPGSHGGYGGGSGGGSSYQGKQGGYSQSNYNSPGSGQNYSGPPSSYQSSQGGYGRNADHSMNYQYR |
